Source: PubChem BioAssay AID1345082 (National Center for Advancing Translational Sciences (NCATS), 2018)
Where “and” joins values, the source holds several entries; their conditions need not be identical. Equal entries are not always repeated. The whole screen tested about 94,000 compounds, of which about 4,000 (4.3%) were called active. The shares of active, inactive and inconclusive entries below differ from those in the screen. Calls follow the shape of the dose curve; as a rule, active = well fitted inhibition curve with a large enough effect; inconclusive = small, poorly fitted or top-dose-only effect; inactive = no such curve, though single readings can be large or run the other way. Potencies of inconclusive entries are doubtful fits and often do not repeat.

Assay: Cytotoxic Profiling in NIH 3T3 Cell Line of Diverse Libraries Using Quantitative High-Throughput Screening; also: nearly all actives have a fitted effect of over 55% in size
Details: NIH 3T3 viability, CellTiter-Glo ATP luminescence, 48-72 h; series mostly up to 96.7 µM
Procedure, shortened: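 ATP-dependent luminescence (CellTiter-Glo) served as the viability signal for NIH 3T3 cells treated with compound for 48 or 72 hr at 37 °C.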
Potency is read from the fitted curve at half-maximal effect; tags tell the direction and shape of the fitted curve.

SMILES | Potency
CC1=C[C@@H](CN2CCN(C)CC2)[C@H](C(C)C)C[C@H]1Cc1nnc(-c2ccc(N(C)C)cc2)o1 | active: 39.8 µM
CC(C)NC(=O)c1nc(-c2ccc(F)cc2)c2ccccn12 | inconclusive: 112 µM [inhibitor, single point]
O=C(NCC1CC1)C1CCCN1c1nccc(Nc2ccccc2F)n1 (stereo not given) | inactive
C#CCNC(=O)C1CCCN1C(=O)c1cccc(-c2ccccn2)c1 (stereo not given) | inactive
FC(F)(F)c1ccc(-c2noc([C@@H]3Cc4nc[nH]c4CN3CC3CCCCC3)n2)cc1 | active: 28.2 µM
COc1ccc(CN2C[C@@H](F)[C@@H](OCc3nc4ccccc4n3C)C2)cn1 | inactive
COc1ccc(C(=O)N2CCC[C@H]2c2nc(-c3ccccc3Cl)no2)cc1F | inconclusive: 44.7 µM [inhibitor, partial curve, poor fit]
COc1ccccc1CN1CCN(C(=O)CCC[C@H]2NC[C@@H]3C[C@H]2CN(Cc2ccccc2)C3)CC1 | inconclusive: 70.8 µM [inhibitor, single point]
O=C1c2cc(N3CCOCC3)nc(-c3cccc(F)c3)c2CN1CC1CC1 | inconclusive: 4.47 µM [inhibitor, full curve, poor fit]
Cc1ccccc1C(=O)N1CCN(c2cc(-c3ccccc3)[nH]n2)CC1 | inconclusive: 50.1 µM [inhibitor, partial curve, poor fit]
COC(=O)NC1CCN(Cc2ccc(-c3cc(F)ccc3OC)cc2)C1 (stereo not given) | inconclusive: 50.1 µM [inhibitor, partial curve, poor fit]
O=C(NC1CCCC1)N1CCC(c2nn(-c3ccccn3)c(=O)[nH]2)CC1 | inactive
Cc1ccc(NC(=O)C2CCCN(c3cnc4nccnc4c3)C2)cc1Cl (stereo not given) | inconclusive: 50.1 µM [inhibitor, partial curve, poor fit]
COC(=O)C1CCN(C(=O)CC[C@H]2CNC(=O)[C@@H]3[C@@H](CCN3Cc3ccc(O)cc3)N2C)CC1 | inactive
CS(=O)(=O)c1ccc(OC[C@H]2C[C@@H](NC(=O)c3cnccn3)[C@H](O)[C@@H]2O)cc1 | inactive
CNC(=O)N1CCC(C2CCN(S(=O)(=O)c3cccc(C#N)c3)C2)CC1 (stereo not given) | inconclusive: 44.7 µM [inhibitor, partial curve, poor fit]
CCCCc1nn(CC(=O)N2CCCC2c2nc(C3CC3)no2)c(=O)n1CC (stereo not given) | inactive
Cc1cccn2c(CC(=O)N3CCn4nc(CO)cc4C3)cnc12 | inactive
Cn1cc(CN2C[C@H](C(=O)Nc3ccncn3)C[C@@H]2c2cccc(C(F)(F)F)c2)cn1 | inconclusive: 35.5 µM [inhibitor, partial curve, poor fit]
O=C(NCCc1ccccn1)c1nc(-c2ccccc2)cc2[nH]ccc12 | inconclusive: 56.2 µM [inhibitor, partial curve, poor fit]

SMILES | Potency
Cc1nc(C)c(C(=O)Nc2nn(Cc3ccccc3)c3cccc(OC(C)C)c23)o1 | inconclusive: 56.2 µM [inhibitor, partial curve, poor fit]
CN(Cc1ccccc1)C(=O)c1cc(-c2ccc(C(F)(F)F)cc2)nc2c1cnn2C | inconclusive: 35.5 µM [inhibitor, partial curve, poor fit]
CC1(O)CCCN(c2ccc(-c3nc(CCCc4ccccc4)no3)cn2)C1 (stereo not given) | inconclusive: 50.1 µM [inhibitor, partial curve, poor fit]
COc1cccc(-c2cc(C3CCN(C(=O)Nc4ccc(OC)cc4OC)CC3)[nH]n2)c1 | inconclusive: 44.7 µM [inhibitor, partial curve, poor fit]
O=C1Nc2ccccc2C12CCN(S(=O)(=O)c1cccc(C(F)(F)F)c1)CC2 | inactive
CCC(CC)C(=O)N1[C@@H](c2ccco2)[C@@H](C(=O)O)C[C@]12CCCCN(CCOC)C2=O | inconclusive: 79.4 µM [inhibitor, partial curve, poor fit]
Cc1ccc(C#N)c(N2CC[C@@H](c3ccc4c(c3)OCO4)[C@H](O)C2)n1 | inconclusive: 89.1 µM [inhibitor, partial curve, poor fit]
COCCNC(=O)[C@@H]1C[C@H](Oc2ccccc2)CN1C(=O)c1ccc(OC)c(F)c1 | inactive
CCCC(=O)N1Cc2ccccc2CC2(CCCN(CC3CCNC3)C2)C1 (stereo not given) | inactive
CCOc1ccccc1CN1CCC2(CCN(C(=O)Cc3ccccn3)CC2)Oc2ccccc21 | inconclusive: 25.1 µM [inhibitor, full curve] and inconclusive: 50.1 µM [inhibitor, partial curve, poor fit]
O=C(c1cc(Cl)ccc1Cl)N1CCN(c2cc(-c3ccccc3)[nH]n2)CC1 | inconclusive: 39.8 µM [inhibitor, partial curve]
Cc1ccc(OCc2nc(C3CN(C(=O)c4n[nH]c5ccccc45)C3)no2)cc1 | active: 20 µM
O=C(Nc1ccc(F)cc1)C1CCN(C(=O)c2ncn3c2COC(c2ccc(F)cc2)C3)CC1 (stereo not given) | inactive
O=C(Cc1cccc(Cl)c1)N1CCc2c(n(CCOc3ccccc3)n(-c3ccccc3)c2=O)C1 | inconclusive: 50.1 µM [inhibitor, partial curve, poor fit]
COc1ccc(-c2cc(N3CCC(NC(=O)c4ccccc4)CC3)n[nH]2)cc1 | inconclusive: 44.7 µM [inhibitor, partial curve, poor fit]
Cc1ccc(F)c(NC(=O)[C@@H]2COCC(=O)N2Cc2ccc(F)cc2)c1 | inactive
CC(C)S(=O)(=O)N1CCC(CCOc2ccccc2)C1 (stereo not given) | inconclusive: 50.1 µM [inhibitor, partial curve, poor fit]
COc1cccc(CN2CCC3(CCC3OC)CC2)n1 (stereo not given) | inactive
Cc1ccc(Cn2c(C3CCN(C(=O)Cc4cccc(F)c4)CC3)n[nH]c2=O)cc1 | inactive
O=C(Nc1ccc(Oc2ccccc2)cc1)O[C@@H]1CO[C@H]2[C@@H]1OC[C@@H]2n1nnnc1SC1CCCC1 | inconclusive: 12.6 µM [inhibitor, full curve, poor fit]
